We go through 43 compounds from ChEMBL document CHEMBL4888484, “Replenishing the malaria drug discovery pipeline: Screening and hit evaluation of the MMV Hit Generation Library 1 (HGL1) against asexual blood stage Plasmodium falciparum ,using a nano luciferase reporter read-out” (2022).

Among all 150,000 compounds or so, about 540 (0.36%) showed an effect of 50% or more. Some of the results follow.

For this test, the system named is Plasmodium falciparum. As to the kind of experiment: Primary screen in NF54 nanoGlo assay, in single point, at 2uM, 72h; a lower Z score goes with more inhibition. The class given is functional, Erythrocyte. The note with it: timepoint 72 hour.
By % Inhibition is commonly meant the drop in the measured response relative to a control, in per cent. Take `O=C(Nc1ccccc1)C1CCN(c2cnc(N3CCCCCC3)nc2)CC1`: the “% Inhibition” value is reported as -19% and the Z score stood at 2.18.

In the case of `O=C(C1CCOCC1)N(CC(F)F)c1cccc(Cl)c1`, the “% Inhibition” value was -14% and the Z score is on record as 1.46.

Regarding `O=C1NC[C@@H](C(=O)Nc2nc(-c3ccccc3)cs2)N1`, the “% Inhibition” value was -4% and the Z score stood at 0.3.

Turning to `c1ccc(-c2nc(C3CCCN(CC4CCOCO4)C3)n[nH]2)cc1` (stereo unspecified), the “% Inhibition” value was -5% and the Z score is reported as 0.54.

With `CCOc1cc(-c2cc(-c3ccccc3O)nc3ccc4ccccc4c23)cc(Br)c1O`, the “% Inhibition” value was 82% and the Z score is -8.45.

For the compound `Cc1cc(Cl)c(C(=O)N(C)CCCS(C)(=O)=O)cc1C`, the “% Inhibition” value is reported as -5% and the Z score was determined as 0.92.

Consider `Cc1c(C(=O)NC[C@H]2CCCN(Cc3ccco3)C2)ccn1C`, for which the “% Inhibition” value is given as 3% and the Z score is given as -0.51.

Turning to `O=C(Nc1ccc(NC(=O)c2ccco2)cc1)c1cc2ccccc2[nH]1`, the “% Inhibition” value is on record as -22% and the Z score is on record as 3.35.

For `Cc1nsc(NC[C@H]2CCc3ccccc3N2)n1`, the “% Inhibition” value is reported as -7% and the Z score worked out at 0.74.

For the compound `CC1(C(=O)O)CCC(C(=O)Nc2nc3c(s2)CCCC3)C1(C)C` (stereo unspecified), the “% Inhibition” value is on record as -2% and the Z score was determined as 0.28.

As to `Cc1nn(-c2ccc(Cl)cc2)cc1-c1noc(C(=O)NC2CCC(C)CC2)n1` (stereo unspecified), the “% Inhibition” value is -10% and the Z score was 1.19.

Turning to `c1coc(-c2nc3nccc(-c4ccc5c(c4)OCO5)n3n2)c1`, the “% Inhibition” value is -19% and the Z score came to 2.51.

With `Cc1nonc1CN1CCC2(CCC(=O)N(CCc3cccnc3)C2)CC1`, the “% Inhibition” value is given as -6% and the Z score is on record as 0.65.

For `Cc1nc(O)nc(O)c1S(=O)(=O)N1CCC(C(=O)NCc2cccs2)CC1`, the “% Inhibition” value is -8% and the Z score was 1.07.

Consider `Cc1cn2cccc(C(=O)N3C[C@H]4COCC[C@@]4(O)[C@@H]4COCC[C@@H]43)c2n1`, for which the “% Inhibition” value was determined as 3% and the Z score is -0.4.

Regarding `CC1(C)OCC2CC21NC(=O)Nc1cc(C(F)(F)F)cc(C2CC2)n1` (stereo unspecified), the “% Inhibition” value is reported as -5% and the Z score is reported as 0.62.

As for `Cc1ccc(Cl)c([C@H](C(=O)O)N2CCN(C3CCN(C)CC3)CC2)c1`, the “% Inhibition” value was determined as 0% and the Z score was 0.02.

As for `CO[C@H]1CCOC[C@@H]1NC(=O)CCCn1ccnc1`, the “% Inhibition” value was -9% and the Z score is on record as 1.7.

As for `Cc1csc(NC(=O)[C@@H]2COCC(=O)N2Cc2cccs2)n1`, the “% Inhibition” value is -3% and the Z score amounted to 0.57.

Consider `CN1CCO[C@H](C(=O)Nc2ccc(-c3ccccn3)cn2)C1`, for which the “% Inhibition” value is listed as -14% and the Z score is on record as 1.44.

For the compound `CC[C@@H](CNc1cc(-c2ncon2)ccn1)N1CCOCC1`, the “% Inhibition” value stood at 0% and the Z score was determined as 0.04.

`CCCCN1C(=O)CC[C@@H]2CN(C(=O)COCc3ccccc3)CC[C@@H]21`: the “% Inhibition” value is reported as -2% and the Z score was determined as 0.45.

Consider `O=C(c1ccccn1)c1ncn(CC(=O)N2CCCCCC2)n1`, for which the “% Inhibition” value is listed as 0% and the Z score is listed as 0.

With `COc1ccc(CN(Cc2n[nH]c(=O)s2)[C@@H](C)C2CC2)cc1`, the “% Inhibition” value is listed as -15% and the Z score is reported as 2.76.

Turning to `CCOc1cc(C(=O)N2CCN(c3nc4ccccc4n3CC)CC2)cc(OCC)c1OCC`, the “% Inhibition” value was -1% and the Z score was 0.13.

On to `Cc1c(-c2nc([C@H]3CCOC3)nn2-c2ccncc2)[nH]c2ccccc12`, for which the “% Inhibition” value is 10% and the Z score was -1.28.

With `O=C(NC1CCCC1)C(=O)N1CCN(c2ccc(F)cc2)CC1`, the “% Inhibition” value is recorded as -5% and the Z score is 0.77.

Regarding `O=C(Cc1ccc(F)cc1)N1CC(=O)N(Cc2ccccc2)C2(CCCCC2)C1`, the “% Inhibition” value is reported as -10% and the Z score was 1.52.

As for `CCCCOC(=O)N1CCN(Cc2ccncc2)[C@@H]2CS(=O)(=O)C[C@@H]21`, the “% Inhibition” value was determined as 3% and the Z score was -0.44.

Consider `CCn1cc(C(=O)NCCNC(=O)c2cn(CC)nc2C)c(C)n1`, for which the “% Inhibition” value is 3% and the Z score is recorded as -0.36.

`COc1ccc(CNC(=O)[C@@H]2CCCN2C)cc1OC`: the “% Inhibition” value is given as 2% and the Z score is given as -0.29.

Turning to `O=C(c1ccc2nsnc2c1)N1Cc2cncnc2C1`, the “% Inhibition” value was -5% and the Z score is listed as 0.8.

As to `O=C(Nc1ccc(C(=O)C2CCC2)cc1)Nc1cnn(CCF)c1`, the “% Inhibition” value was determined as 11% and the Z score is recorded as -1.24.

In the case of `Cc1cnc(C(=O)Nc2cccc(Cn3ccnc3)c2)cn1`, the “% Inhibition” value is given as -10% and the Z score was determined as 1.62.

With `CC(=O)N1CCN(c2nc3cc(Cl)ccc3cc2CNC[C@H](C)c2ccccc2)CC1`, the “% Inhibition” value is -12% and the Z score worked out at 1.59.

Turning to `CN(c1ccc(C(=O)Nc2ccc3c(c2)OCCO3)c(Cl)c1)S(C)(=O)=O`, the “% Inhibition” value is -16% and the Z score is on record as 1.98.

For `Cc1cc(N)n(-c2nc(-c3cccs3)cs2)n1`, the “% Inhibition” value amounted to 20% and the Z score is -2.55.

For `COc1ccc(-n2nc(C)c3c(N4CCCN(C(=O)NC(C)(C)C)CC4)nc(C4CC4)nc32)cc1`, the “% Inhibition” value is on record as -10% and the Z score worked out at 1.2.

Turning to `COCCn1c(CO)nnc1[C@H]1C[C@@H](NC(=O)c2c(C)cccc2C)C1`, the “% Inhibition” value was 2% and the Z score is on record as -0.28.

On to `CCN(CC)c1ncnc2c(-c3ccccc3)cn(CC(=O)N3CCCC3)c12`, for which the “% Inhibition” value is 2% and the Z score is recorded as -0.35.

In the case of `CCc1c(C(=O)N2CCOC[C@](O)(CN3CCCC3)C2)csc1C`, the “% Inhibition” value is -1% and the Z score is 0.11.

In the case of `Cc1nonc1N1CCN(C(=O)c2ccc3c(c2)OCCO3)CC1`, the “% Inhibition” value was -11% and the Z score worked out at 1.08.

For `FC(F)Oc1cccc(COc2nnc3ccccn23)c1`, the “% Inhibition” value is reported as -17% and the Z score is given as 1.57.
